# According to the supplement of paper PMC4967469:
# IC50 is the fitted dose that halves viability relative to control wells, and lower means more sensitive; where the fit passes the top or lowest dose, that dose stands as a limit. AUC sums up the same curve from the lowest dose to the 256-fold higher top dose: 1 means no effect, lower means more sensitive. For part of these data: A top dose marked as inferred was derived from the fitted curves, not read from the paper. For part of these data: An entry number marks a drug with two screens in the source, which often give different values.
# What was measured:
# Experiment in all cases: Viability of human cancer cell lines after 72 h of drug (GDSC screen)
# TW-37 = compound: CC(C)c1ccccc1Cc1cc(C(=O)Nc2ccc(S(=O)(=O)c3ccccc3C(C)(C)C)cc2)c(O)c(O)c1O [TW-37]; conditions: top dose 5 µM
# Description: (§1)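 Human cancer cell lines in 384-well plates, medium with 10% serum, drug for 72 h over a 256-fold dose range (nine 2-fold or five 4-fold steps up to the top dose). Adherent lines were fixed and stained with the nucleic acid dye Syto60, suspension lines read with resazurin; signal relative to control wells, capped at 0 and 100%. One two-parameter sigmoid per drug and line, fitted in a mixed model over all curves with the slope shared within a line.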
# Bicalutamide = compound: CC(O)(CS(=O)(=O)c1ccc(F)cc1)C(=O)Nc1ccc(C#N)c(C(F)(F)F)c1 [Bicalutamide]; conditions: top dose inferred
# Description: as §1
# Nilotinib = compound: Cc1cn(-c2cc(NC(=O)c3ccc(C)c(Nc4nccc(-c5cccnc5)n4)c3)cc(C(F)(F)F)c2)cn1 [Nilotinib]; conditions: top dose 2 µM
# Description: as §1
# Gemcitabine = compound: Nc1ccn([C@@H]2O[C@H](CO)[C@@H](O)C2(F)F)c(=O)n1 [Gemcitabine]; conditions: top dose 1.024 µM
# Description: as §1
# KIN001-270 = compound: Cc1ccc(Nc2cc(-c3cccc(N4C(=O)c5ccccc5C4=O)c3)ncn2)cc1NS(C)(=O)=O [KIN001-270]; conditions: top dose 20 µM; top dose inferred
# Description: as §1
# LFM-A13 = compound: C/C(O)=C(\C#N)C(=O)Nc1cc(Br)ccc1Br [LFM-A13]; conditions: top dose 16 µM; top dose inferred
# Description: as §1
# T0901317 = compound: O=S(=O)(c1ccccc1)N(CC(F)(F)F)c1ccc(C(O)(C(F)(F)F)C(F)(F)F)cc1 [T0901317]; conditions: top dose 10.24 µM; top dose inferred
# Description: as §1
# MP470 = compound: S=C(NCc1ccc2c(c1)OCO2)N1CCN(c2ncnc3c2oc2ccccc23)CC1 [MP470]; conditions: top dose 20 µM; top dose inferred
# Description: as §1
# AUY922 = compound: CCNC(=O)c1noc(-c2cc(C(C)C)c(O)cc2O)c1-c1ccc(CN2CCOCC2)cc1 [AUY922]; conditions: top dose 0.256 µM; top dose inferred
# Description: as §1
# [1] = top dose 10 µM, screen: GDSC drug entry 1502
# [2] = top dose 1.024 µM, screen: GDSC drug entry 150
Cell Line,AUC (TW-37),IC50 (TW-37) [µM],AUC (Bicalutamide; [1]),IC50 (Bicalutamide; [1]) [µM],AUC (Nilotinib),IC50 (Nilotinib) [µM],AUC (Gemcitabine),IC50 (Gemcitabine) [µM],AUC (KIN001-270),IC50 (KIN001-270) [µM],AUC (Bicalutamide; [2]),IC50 (Bicalutamide; [2]) [µM],AUC (LFM-A13),IC50 (LFM-A13) [µM],AUC (T0901317),IC50 (T0901317) [µM],AUC (MP470),IC50 (MP470) [µM],AUC (AUY922),IC50 (AUY922) [µM]
"TC-YIK (cervix, suspension)",0.543,0.404,0.967,> 10,0.986,> 2,,,,,,,,,,,,,,
"SK-MEL-31 (melanoma, adherent)",0.663,1.01,0.966,> 10,0.985,> 2,,,,,,,,,,,,,,
"MOLM-16 (acute myeloid leukaemia, suspension)",0.45,0.232,0.977,> 10,0.93,> 2,,,,,,,,,,,,,,
"HO-1-N-1 (head and neck, adherent)",0.708,1.14,0.963,> 10,,,0.294,0.0179,0.982,> 20,0.989,> 1.02,0.947,> 16,0.986,> 10.2,0.976,> 20,0.596,0.0287
"COR-L23 (large cell lung carcinoma, adherent)",0.611,0.627,0.982,> 10,,,0.314,0.0196,0.96,> 20,0.987,> 1.02,0.931,> 16,0.963,> 10.2,0.937,> 20,0.471,0.0133
"MOLT-13 (T-cell lymphoblastic leukaemia, suspension)",0.616,0.623,0.957,> 10,0.982,> 2,,,0.973,> 20,,,,,,,0.732,5.17,,
"NCI-H1793 (lung adenocarcinoma, adherent)",0.723,1.77,0.951,> 10,,,0.686,0.265,0.974,> 20,0.982,> 1.02,0.961,> 16,0.98,> 10.2,0.89,> 20,0.925,> 0.256
"KARPAS-1106P (B-cell lymphoma, suspension)",0.511,0.333,0.992,> 10,0.951,> 2,,,,,,,,,,,,,,
"SW626 (ovary, adherent)",0.537,0.401,0.98,> 10,,,0.258,0.0112,0.976,> 20,0.982,> 1.02,0.961,> 16,0.975,> 10.2,0.334,0.395,0.555,0.0232
"SBC-3 (small cell lung carcinoma, adherent)",0.356,0.13,0.934,> 10,,,0.256,0.0138,0.921,> 20,0.989,> 1.02,0.974,> 16,0.976,> 10.2,0.78,7.48,0.431,0.0105
"VMRC-LCD (lung adenocarcinoma, adherent)",0.398,0.173,0.992,> 10,0.993,> 2,,,,,,,,,,,,,,
"KATOIII (stomach, semi-adherent)",0.83,2.78,,,0.977,> 2,,,,,,,,,,,,,,
"J82 (bladder, adherent)",0.697,1.12,0.981,> 10,,,0.211,0.00907,0.983,> 20,0.987,> 1.02,0.958,> 16,0.986,> 10.2,0.979,> 20,0.52,0.0182
"H2591 (mesothelioma, adherent)",0.47,0.253,0.974,> 10,,,0.783,0.577,0.951,> 20,0.982,> 1.02,0.974,> 16,0.982,> 10.2,0.982,> 20,0.697,0.0686
"NCI-H146 (small cell lung carcinoma, suspension)",0.617,0.609,0.988,> 10,0.949,> 2,,,,,,,,,,,,,,
"NCI-H1105 (small cell lung carcinoma, suspension)",,,0.993,> 10,0.993,> 2,,,,,,,,,,,,,,
